The subject of this test is Plasmodium falciparum NF54 stage V gametocytes. The experiment in a line: viability index relative to DMSO control (fraction); higher = less gametocyte killing. The settings on record: 2.5 µM, incubation time: 72 h. In outline:
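P. falciparum NF54 stage V gametocytes in serum-free screening medium (0.75% gametocytemia, 1.25% hematocrit, 10 µl) were incubated with compound at 2.5 µM in 1,536-well plates for 72 hr at 37°C under low oxygen. Then 3 µl of 2.5 µM MitoTracker Red CMXRos plus 0.13% saponin was added for one to two hours. One field per well was imaged, 20–70 µm2 red particles were counted, and the viability index was the count divided by the plate mean of DMSO wells.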

Where [1] appears, read: library set: Broad Institute DOS.

± gives the uncertainty stated by the source. In all, about 9,900 compounds were measured (“viability index relative to DMSO control”: median about 1, lowest 2% from about 0.85 on). The list shows a part of the results.

Compound `CO[C@H]1CN(C)C(=O)c2cc(NC(=O)NC(C)C)ccc2OC[C@@H](C)N(Cc2ccccc2)C[C@H]1C` came in with a viability index under setting [1] of 0.953 ± 0.03.

Consider `O=C(Cc1cccnc1)N1CC2(C1)[C@H](c1ccccc1)[C@@H](CO)N2C(=O)C1CCOCC1`, for which, under setting [1], the viability index was found to be 1.1 ± 0.013. Still for that read-out and setting: with `COc1ccc2c3c([C@@H](CO)NC[C@]33CN(CC4CCOCC4)C3)n(C)c2c1` the figure was 1.07 ± 0.029; with `O=C(C[C@@H]1C=C[C@@H](NC(=O)c2ccc3c(c2)OCO3)[C@@H](CO)O1)NC1Cc2ccccc2C1`, 0.963 ± 0.11; with `CO[C@H]1CN(C)C(=O)c2ccc(NS(C)(=O)=O)cc2OC[C@@H](C)N(C(=O)CN(C)C)C[C@@H]1C`, 1.06 ± 0.031. On the same count and under the same terms, the result for `CO[C@@H]1CN(C)C(=O)c2cc(NC(=O)CC(F)(F)F)ccc2OC[C@@H](C)N(CC2CC2)C[C@H]1C` reads 1.11 ± 0.012.

Take `O=C(Nc1ccc2c(c1)[C@H]1C[C@@H](CC(=O)N3CCCCC3)O[C@@H](CO)[C@H]1O2)NC1CCCCC1`: the viability index under setting [1] was 1.072 ± 0.0067. Same read-out and setting: the result for `C[C@@H](O)C#Cc1ccc([C@@H]2[C@@H](CO)N3CCCCN(C(=O)c4ccc5c(c4)OCO5)C[C@H]23)cc1` reads 0.992 ± 0.017; that for `O=C(CC1CC1)N1CC(=O)N2[C@H](C1)[C@H](c1ccc(/C=C/c3ccccc3)cc1)[C@@H]2CO`, 1.022 ± 0.0061. The same measure, in the same setting: with `C[C@@H]1CCCCO[C@@H](CN(C)S(=O)(=O)c2ccc(F)cc2)[C@H](C)CN([C@@H](C)CO)C(=O)c2cc(N(C)C)ccc2O1` the figure was 1.05 ± 0.092; with `COc1ccc(S(=O)(=O)Nc2ccc3c(c2)OC[C@H](C)NC[C@@H](C)[C@@H](OC)CN(C)C3=O)cc1`, 1.06 ± 0.034; with `CN(C)C(=O)c1cccc(-c2ccc3c(c2)[C@H]2[C@H](CCN2Cc2nccs2)[C@H](CO)N3)c1`, 0.818 ± 0.014. The compound `CCCNC(=O)N1[C@H](CNC(=O)c2cccc(F)c2)[C@H](c2ccccc2)[C@@H]1CO` showed a viability index under setting [1] of 0.974 ± 0.06.

Turning to `CC(C)NC(=O)Nc1cccc2c1O[C@@H](CN(C)C(=O)Nc1ccccc1)[C@@H](C)CN([C@@H](C)CO)C2=O`, under setting [1], the viability index amounted to 1.04 ± 0.011. Same read-out and setting: the result for `C[C@H]1CN([C@@H](C)CO)C(=O)c2cccc(NC(=O)Nc3ccc(C(F)(F)F)cc3)c2O[C@H]1CN(C)S(=O)(=O)c1cn(C)cn1` reads 1.03 ± 0.037; that for `CO[C@H]1CN(C)C(=O)c2cc(NC(=O)Nc3cc(F)ccc3F)ccc2OC[C@H](C)NC[C@H]1C`, 0.959 ± 0.049. Still for that read-out and setting: with `COCCNC(=O)C[C@@H]1CC[C@@H]2[C@H](COc3ccc(NS(=O)(=O)c4ccc(Cl)cc4)cc3C(=O)N2C)O1` the figure was 1.19 ± 0.055; with `O=C(c1ccc2c(c1)OCO2)N1C[C@@H]2[C@H](c3ccccc31)[C@H](CO)N2C(=O)CC1CC1`, 1.07 ± 0.021; with `C[C@@H]1CN([C@H](C)CO)C(=O)Cc2cc(NC(=O)C3CCCCC3)ccc2O[C@@H]1CN(C)Cc1ccc(Cl)c(Cl)c1`, 0.92 ± 0.072. Still for that read-out and setting: with `C[C@H](CO)N1C[C@H](C)[C@H](CN(C)C(=O)Nc2cccc3ccccc23)Oc2c(NC(=O)C3CCOCC3)cccc2C1=O` the figure was 0.961 ± 0.19; with `C[C@@H](NC(=O)[C@@H]1[C@@H](CO)[C@@H]2Cn3c(cccc3=O)[C@@H]2N1CCC(F)(F)F)c1ccccc1`, 1.05 ± 0.015. The compound `O=C(C[C@H]1CC[C@H]2[C@@H](COC[C@@H](O)CN2CCC(F)(F)F)O1)NCc1ccc2c(c1)OCO2` displayed a viability index under setting [1] of 1.05 ± 0.032. On the same count and under the same terms, the result for `C[C@@H](NC(=O)C[C@@H]1C=C[C@H](NS(=O)(=O)c2cccc(F)c2)[C@@H](CO)O1)c1ccccc1` reads 1.07 ± 0.15.

In turn, `O=C(c1ccc2c(c1)OCO2)N1C[C@H]2[C@@H](c3ccccc31)[C@@H](CO)N2C(=O)CC1CC1` returned a viability index under setting [1] of 1.04 ± 0.13.

On to `O=C(c1cccc(F)c1)N1CC(=O)N2[C@H](C1)[C@H](c1ccc(/C=C/c3ccccc3)cc1)[C@@H]2CO`, for which the viability index under setting [1] was determined as 1.07 ± 0.012.

For the compound `C[C@@H]1CN([C@H](C)CO)C(=O)CCCn2nncc2CO[C@@H]1CN(C)Cc1ccc2cccnc2c1`, the viability index under setting [1] amounted to 1.06 ± 0.06. For the compound `COc1cccc(C#Cc2ccc3c(c2)O[C@@H](CN(C)C(=O)CN2CCOCC2)[C@@H](C)CN([C@@H](C)CO)S3(=O)=O)c1`, under setting [1], the viability index came to 0.965 ± 0.087. As for `CO[C@@H]1CN(C)C(=O)c2ccc(NS(C)(=O)=O)cc2OC[C@@H](C)N(S(=O)(=O)CC(F)(F)F)C[C@H]1C`, the viability index under setting [1] is 1.0226 ± 0.00026. The same measure, in the same setting: with `COc1cccc(-c2ccc([C@@H]3[C@@H]4CN(C(=O)C5CCCCC5)C[C@H]3N4)cc2)c1` the figure was 0.956 ± 0.039. Under “library set: Broad Institute Blood Stage”, `COc1ccc(-c2ccccc2[C@H]2[C@@H](C#N)N(C(=O)C3CCCC3)[C@H]2CO)cc1` registered a viability index of 0.907 ± 0.054. Compound `O=C(C[C@H]1C[C@H]2c3cc(NS(=O)(=O)c4ccc(F)cc4)ccc3O[C@H]2[C@H](CO)O1)NCc1cccnc1` showed a viability index under setting [1] of 1.0511 ± 0.001. As for `COc1cccc(C(=O)Nc2ccc3c(c2)C(=O)N(C)[C@H]2CC[C@@H](CC(=O)N[C@@H](C)c4ccccc4)O[C@@H]2CO3)c1`, the viability index under setting [1] came out at 1.14 ± 0.094.

Regarding `COc1ccc(NC(=O)N2CC(=O)N3[C@H](CO)[C@@H](c4ccc(Br)cc4)[C@@H]3C2)cc1`, under setting [1], the viability index turned out to be 1.04 ± 0.031. `Cc1noc(C)c1S(=O)(=O)N(C)C[C@@H]1OCCCC[C@@H](C)Oc2ccc(N(C)C)cc2C(=O)N([C@@H](C)CO)C[C@H]1C` displayed a viability index under setting [1] of 0.635 ± 0.13.

For the origin of these results see the supplement of paper PMC4723716.
